Screen size: about 310,000 compounds; about 2,200 (0.71%) showed an effect of 50% or more. Effects have a minus sign here. The list shows a part of the results.
Biological target: human ether-à-go-go-related gene (hERG) potassium channel (human, UniProt Q12809)
Assay: primary screen, population patch clamp on CHO cells stably expressing hERG

human ether-à-go-go-related gene (hERG) potassium channel, sequence (Q12809 whole entry, looked up): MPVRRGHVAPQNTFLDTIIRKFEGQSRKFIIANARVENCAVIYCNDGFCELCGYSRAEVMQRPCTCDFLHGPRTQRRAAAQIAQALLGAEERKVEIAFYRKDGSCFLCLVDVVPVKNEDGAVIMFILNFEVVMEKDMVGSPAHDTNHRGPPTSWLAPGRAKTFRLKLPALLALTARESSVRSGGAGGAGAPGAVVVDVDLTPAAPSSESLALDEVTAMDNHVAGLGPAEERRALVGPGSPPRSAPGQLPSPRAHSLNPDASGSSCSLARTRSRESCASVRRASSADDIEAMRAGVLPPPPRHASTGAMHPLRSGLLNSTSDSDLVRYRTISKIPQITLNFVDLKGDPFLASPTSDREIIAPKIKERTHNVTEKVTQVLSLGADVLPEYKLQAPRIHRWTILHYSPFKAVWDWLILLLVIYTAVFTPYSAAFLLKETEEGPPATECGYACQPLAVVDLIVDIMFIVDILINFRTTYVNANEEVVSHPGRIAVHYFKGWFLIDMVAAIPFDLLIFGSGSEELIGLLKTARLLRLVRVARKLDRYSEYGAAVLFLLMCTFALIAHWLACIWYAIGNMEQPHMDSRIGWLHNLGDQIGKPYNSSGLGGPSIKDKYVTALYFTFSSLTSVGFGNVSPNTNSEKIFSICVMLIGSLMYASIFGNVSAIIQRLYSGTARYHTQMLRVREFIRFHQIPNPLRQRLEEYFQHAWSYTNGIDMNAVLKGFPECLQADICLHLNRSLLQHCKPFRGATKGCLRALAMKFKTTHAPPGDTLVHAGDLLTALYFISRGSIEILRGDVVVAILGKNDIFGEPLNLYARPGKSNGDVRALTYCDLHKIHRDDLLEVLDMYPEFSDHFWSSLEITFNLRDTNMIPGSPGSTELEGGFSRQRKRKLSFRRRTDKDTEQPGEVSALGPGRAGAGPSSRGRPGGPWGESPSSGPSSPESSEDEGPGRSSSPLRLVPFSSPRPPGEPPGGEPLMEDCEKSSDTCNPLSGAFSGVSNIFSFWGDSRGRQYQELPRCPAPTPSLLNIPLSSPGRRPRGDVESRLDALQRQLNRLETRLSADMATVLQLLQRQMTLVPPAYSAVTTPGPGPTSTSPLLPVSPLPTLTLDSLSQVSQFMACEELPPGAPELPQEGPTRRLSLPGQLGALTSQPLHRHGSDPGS

SMILES | hERG current change (%, negative = inhibition) at 1uM [%]
Cc1cc(NC(=O)CSc2nc3c(sc4ccccc43)c(=O)n2CCCN2CCOCC2)n[nH]1 | 3.66
C/C(=N\NC(=O)CCC(=O)O)c1c(-c2ccccc2)c2cc(Br)ccc2[nH]c1=O | 6.2
CCC(C)Sc1nc2c(cnn2-c2ccc(C)cc2)c(=O)[nH]1 (centres unmarked) | 10.5
COc1cc2c(cc1OC)CN(CC(=O)Nc1ccc3c(c1)OC(F)(F)O3)CC2 | 7.61
CC1(C)CC(=O)C2=C(C1)Nc1ccccc1NC2c1ccccn1 (centres unmarked) | 8.37
COc1ccc(NS(=O)(=O)c2ccc(NS(=O)(=O)c3cccs3)cc2)c(OC)c1 | 7.26
Cc1ccc(S(=O)(=O)NCCC(=O)NCC(=O)Nc2c(C)cccc2C)cc1C | -5.09
O=C(Nc1cccc(-n2cnnn2)c1)c1ccncc1 | 9.42
C[C@H](NC(=O)c1nc[nH]c1C(=O)NCC(=O)OC(C)(C)C)C(=O)OCc1ccccc1 | 2.4
Clc1ccccc1C1Nc2cccc3cccc(c23)N1 | 7.9
C/C(=N\NC(=O)CCCNc1ccccc1)c1ccncc1 | 17.2
CC(C)(C)[C@H]1C=C(C(=O)NCc2ccccc2)O[C@@H](OCc2ccc(CO)cc2)C1 | 6.77
CC1(C)Cc2ccccc2-c2nc(CN3CCOCC3)[nH]c(=O)c21 | 4.9
COCCSc1ccccc1C(=O)Nc1cc(C)cc(C)c1 | 7.25
COc1cccc(CNC(=O)CSc2nnc3c(n2)[nH]c2ccc(C)cc23)c1 | 0.23
CCOC(=O)CSC1=C(C#N)C(c2ccc(OC)cc2)C2=C(CC(C)(C)CC2=O)N1 (centres unmarked) | -3.69
C=CCNC(=O)c1snnc1-c1ccccc1 | 4.1
COc1cccc(CNC(=O)N2CCN(c3ccccc3Cl)CC2)c1 | 10.1
Cc1ccccc1Nc1nc(-c2sc(NC(=O)c3ccco3)nc2C)cs1 | 14.8
C/C=C/c1ccc(OCCCN2C(=O)NC(C)(C)C2=O)c(OC)c1 | 12.9
N#C/C(=C\C=C\c1ccccc1[N+](=O)[O-])C(=O)NCc1ccccc1 | -1.37
COc1ccc(C(=O)NCC(=O)OCC(=O)N2CCCc3ccccc32)cc1 | 6.15
COc1ccc(-n2cnnc2SCC(=O)Nc2ccc(N3CCOCC3)cc2)cc1 | -5.01

SMILES | hERG current change (%, negative = inhibition) at 1uM [%]
O=C(c1ccco1)N1c2ccccc2Sc2ccccc21 | 15
Cc1ccc(C(Sc2ccccc2)C(Cn2cncn2)C(=O)c2ccccc2)cc1 (centres unmarked) | 16
CCN(CC)CCCNc1ccc(-c2nnc(-c3ccc(OCC(C)C)cc3)o2)cn1 | -0.619
CCOC(=O)c1sc(NC(=O)CCc2ccccc2)nc1C | 20.7
O=C(O)CNc1ccccc1C(=O)O | 7.1
CC(C)c1ccc(S(=O)(=O)N2CCC(C(=O)NCC3(N(C)C)CCCCC3)CC2)cc1 | -7.38
CCN(CC)C(=O)Cn1cc(SCC(=O)NC)c2ccccc21 | -10.2
O=C(c1cc2n(n1)C(C(F)(F)F)CC(c1ccc(F)cc1)N2)N1CCCC1 (centres unmarked) | 7.93
CC(=O)c1ccc(OCC(C)C)c(Cc2c(O)nc(N)[nH]c2=O)c1 | 10.2
O=C(C1CC1)N(CCN(Cc1ccccc1)C(=O)C1CC1)Cc1ccccc1 | -9.21
CCc1cc(=O)oc2cc(C)cc(OCC(=O)C(C)(C)C)c12 | 10.1
COC(=O)/C=C1\OC(c2ccccc2)=CC1=O | 6.38
Cc1cccc(CN2C3=NCCCN3c3ccccc32)c1.Cl | -16.9
Cc1cccc(/C=C2\CCC(C3CCCC3)C2=O)c1 (centres unmarked) | -1.34
COC(=O)CN(C#N)c1nc(C)cc(C)n1 | 6.94
Cc1ccccc1C(=O)N1CCN(c2ccc(NC(=O)c3cccnc3Cl)cc2)CC1 | 13.8
CCOc1ccc(NC(=O)c2ccc(Cn3nc(C)cc3C)o2)cc1 | 8.02
COc1ccc(C(=O)C[N+]2(C)CCOCC2)cc1.[I-] | 2.43
Cc1ccccc1OCCOC(=O)c1cc(S(=O)(=O)N2CCCCC2)ccc1N1CCOCC1 | 4.95
CN1CCC2(CC1)C(C#N)=C(N)NC(S)=C2C#N | 7.91
CCOCCCNC(=S)N1CCN(c2nc(-c3ccc(F)cc3)cs2)CC1 | 15.5
COc1cc(OC)cc(-c2nc3cc(C)ccc3o2)c1 | -12.3
COc1ccc(C(=O)CN2C(=O)NC3(CCc4ccccc43)C2=O)cc1 (centres unmarked) | 0.286

SMILES | hERG current change (%, negative = inhibition) at 1uM [%]
CCCCn1c(N)c(N(CCOC)C(=O)C2CC(=O)N(c3cccc(SC)c3)C2)c(=O)[nH]c1=O (centres unmarked) | 16.9
O=S(=O)(c1cccc2cccnc12)N1CCc2ccccc21 | 9.78
CCOC(=O)NC1(C(F)(F)F)C(=O)N(Cc2ccccn2)C2=C1C(=O)CC(C)(C)C2 (centres unmarked) | 22.1
O=C(c1ccc2nccnc2c1)N1CCN(Cc2ccc3c(c2)OCO3)CC1 | 8.04
Cc1cc(S(=O)(=O)NCc2ccco2)c(C)s1 | 8.32
CCOC(=O)C1CCCN(c2c(C(=O)c3ccccc3)cnc3ccc(OC)cc23)C1 (centres unmarked) | 3.13
C=C(C)CCC1(C)NC(=O)N(c2ccccc2)N1 (centres unmarked) | -5.43
CC1CN(CCCOc2ccc([N+](=O)[O-])cc2)CC(C)O1.O=C(O)C(=O)O (centres unmarked) | -59.6
CCN(CC)C(=O)CSc1nc2ccc(NC(=O)CSc3nnc(N)s3)cc2s1 | 6.59
O=C(N1CCCCC1)N1CCN(C(=O)N2CCCCC2)CC1 | 17.2
Cc1ccc([N+](=O)[O-])c(OCc2ncc(Cl)n2C)c1 | 11.9
O=C(NCC1CCN(Cc2ccccc2Cl)CC1)Nc1ccccc1F | -6.32
Cc1cc(C(=O)N2CCCC(N3CCN(c4ccccc4C)CC3)C2)n(C)n1 (centres unmarked) | -87.7
Cc1ccc(NCCC#N)cc1C | 6.9
Cc1ccc(N(C(C)C(=O)NCc2ccncc2)S(C)(=O)=O)cc1C (centres unmarked) | 9.25
Cc1[nH]nc(N=CC2=C(O)CC(c3ccco3)CC2=O)c1-c1ccccc1 (centres unmarked) | 19.8
O=C1CCCC(O)=C1N=Nc1c(Cl)cc(Cl)cc1Cl | 18.8
CC(C)C(c1nnnn1C1CCCC1)N1CCCCC1.Cl (centres unmarked) | 16.5
CC(c1ccccc1)N1CC(C(=O)N2CCN(c3ccccc3)CC2)CC1=O (centres unmarked) | -7.58
COc1ccc(NC(=O)CCc2nc3ccccc3[nH]2)cc1 | 7.35
CC1CCN(c2ccc(NC(=O)C3CCCN3S(=O)(=O)c3ccc(F)cc3)cc2)CC1 (centres unmarked) | 5.75
CCOC(=O)Cn1c(=O)oc2cc(S(=O)(=O)NCC3CCCO3)ccc21 (centres unmarked) | 4.16
CN(C)c1ccc(C(=O)/C=C/c2ccco2)cc1 | 12.4

SMILES | hERG current change (%, negative = inhibition) at 1uM [%]
CCC(=O)N1CCc2cc(Br)cc(S(=O)(=O)CC(=O)OC)c21 | 15.3
COc1ccc(-n2nc(C(=O)NCC(=O)N3CCOCC3)c3ccccc3c2=O)cc1OC | 3.31
COc1ccc(-c2csc(Nc3ncccc3C)n2)cc1 | -7.99
Cc1ccc(NC(=O)c2nc[nH]c2C(=O)N2CCN(C(=O)OC(C)(C)C)CC2)cc1 | -2.67
COc1ccccc1-c1cc(C(=O)N/N=C\c2cn(C)nc2C)c2ccccc2n1 | 9.11
Cc1ccc2c(CNCc3ccco3)cc(=O)oc2c1 | -1.01
Cc1c(Cl)cn2c(=O)cc(CN(C)Cc3nc4ccccc4c(=O)[nH]3)nc2c1Cl | -5.39
CCOP(=O)(c1ccc(N(C)C)cc1)C(O)c1c(Cl)cccc1Cl (centres unmarked) | -1.75
O=C(CSc1nnc(CNC(=O)c2c(F)cccc2F)o1)NCc1ccc(F)cc1 | 10.7
Cn1cc(Br)c(C(=O)N/N=C/c2cccc(OC3CSC3)c2)n1 | 3.34
CCN(CC)S(=O)(=O)c1cccc(-n2c(O)c(C=Nc3ccccc3C(=O)O)c3ccccc3c2=O)c1 | 6.37
CC(=O)c1ccc(NS(=O)(=O)c2ccc3ccccc3c2)cc1 | 5.22
Cc1ccc(C)c(NC(=O)Cc2csc(-c3ccccc3)n2)c1 | -0.929
O=C1NC(c2cccs2)C(C(=O)c2ccccc2)C(O)(C(F)(F)F)N1 (centres unmarked) | 10.5
CCOC(=O)C1C(c2ccc(OC)c(OC)c2)c2c([nH][nH]c2=O)CC1(C)O (centres unmarked) | 9.25
CCOC(=O)c1[nH]c(C)c(/C(O)=C2\C(=O)C(=O)N(CCCN(C)C)C2c2cccnc2)c1C (centres unmarked) | 6.37
COc1cccc(OCc2nnc(SCC(=O)OC3CCCCC3)n2C)c1 | 8.11
CCN1CCN(C(c2ccccc2)c2sc3nc(C)nn3c2O)CC1 (centres unmarked) | 3.27
Cn1cccc1/C=N/NC(=O)c1ccncc1 | 10.2
CC(=N\NC(=O)c1cc(Br)ccc1O)/C(=N/O)C(=O)Nc1ccccc1 | 31.2

Reference: paper PMC4336329 (PLoS ONE, 2015)
